In all, about 270,000 compounds went through this assay and about 620 (0.23%) were called active. The shares of active, inactive and inconclusive entries below differ from those in the screen. Calls come from the whole dose curve; as a rule, active = well fitted inhibition curve with a large enough effect in the polarisation, with a control signal flat (not every such curve was filed as active); inconclusive = small, poorly fitted or top-dose-only effect, or effect the other way, or a change in a side signal; inactive = no such curve, though single readings can be large or run the other way; the % refers to the polarisation. Potencies of inconclusive entries are doubtful fits and often do not repeat. “Side channel” marks fits to a control or component signal instead of the main read-out.
Biological target: Menin (Homo sapiens) (UniProt O00255)
UniProt O00255, sequence (O00255 whole entry, looked up): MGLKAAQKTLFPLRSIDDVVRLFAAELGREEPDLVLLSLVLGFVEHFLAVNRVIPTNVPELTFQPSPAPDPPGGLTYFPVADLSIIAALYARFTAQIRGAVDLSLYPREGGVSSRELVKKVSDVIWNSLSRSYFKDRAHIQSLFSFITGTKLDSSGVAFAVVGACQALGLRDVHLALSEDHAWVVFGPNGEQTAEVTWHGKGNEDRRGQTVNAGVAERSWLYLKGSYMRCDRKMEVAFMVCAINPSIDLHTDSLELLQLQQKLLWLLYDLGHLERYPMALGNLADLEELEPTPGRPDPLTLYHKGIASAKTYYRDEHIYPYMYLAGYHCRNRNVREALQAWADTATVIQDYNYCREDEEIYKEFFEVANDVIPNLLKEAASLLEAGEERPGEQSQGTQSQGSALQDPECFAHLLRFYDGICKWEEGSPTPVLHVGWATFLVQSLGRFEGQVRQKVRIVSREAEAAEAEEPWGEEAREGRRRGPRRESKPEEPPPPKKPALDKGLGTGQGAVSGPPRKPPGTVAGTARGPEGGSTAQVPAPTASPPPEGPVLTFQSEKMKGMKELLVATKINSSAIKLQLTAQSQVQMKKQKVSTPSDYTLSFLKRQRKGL
Test: qHTS Assay for Inhibitors Targeting the Menin-MLL Interaction in MLL Related Leukemias: Competition With Texas Red Labeled MLL-derived Mutant Peptide; for FP activity change, negative = inhibition: % of control where 0% means no effect
Conditions: fluorescence polarization; FP activity change, negative = inhibition: at 61.6 µM (top of the series)
Potency is the fitted concentration of half-maximal effect; tags give direction and shape of the fitted curve or compound fluorescence and quenching.

| Compound | Potency | FP activity change, negative = inhibition |
| --- | --- | --- |
| Cc1cc(S(=O)(=O)NCc2ccccc2)ccc1OCC(=O)Nc1cccc([N+](=O)[O-])c1 | inconclusive: 3.55 µM [quencher, side channel, full curve] | – |
| CC(=O)[C@@H]1[C@@H]2C(=O)N(Cc3ccccc3)C(=O)[C@@H]2C2c3ccccc3C=CN21 (some centres not stated) | – | inactive: -0.58% |
| O=C(Nc1ccnn1C1CCN(C2CCC2)CC1)c1ccccc1 | – | inactive: -0.707% |
| Cc1nc2c(C(=O)NCc3ccc4c(c3)OCO4)c[nH]n2c(=O)c1Cc1ccccc1F | inconclusive: 17.8 µM [quencher, side channel, partial curve] | – |
| O=C(/C=C/c1ccccc1)NC(=S)Nc1cccnc1 | inconclusive: 39.8 µM [inhibitor, single point] | – |
| COc1ccc(C2c3ccc4ccccc4c3Oc3ncn(CCN(C)C)c(=N)c32)cc1 (configuration not stated) | inconclusive: 11.2 µM [fluorescent, side channel, partial curve] | – |
| CCc1nnc(NS(=O)(=O)c2ccc(NC(=S)NC(=O)/C=C/c3cccs3)cc2)s1 | inconclusive: 10 µM [quencher, side channel, partial curve] | – |
| COc1ccc(CNC(=S)Nc2ccc(F)c(Cl)c2)cc1 | inconclusive: 12.6 µM [quencher, side channel, partial curve] | – |
| O=C(Cn1c2ccccc2c2nc3n(c(=O)c21)CCS3)Nc1ccccc1C(F)(F)F | inconclusive: 10 µM [fluorescent, side channel, partial curve] | – |
| Cc1c(C(=O)N/N=C/c2c(O)ccc3ccccc23)nnn1-c1nonc1N | inconclusive: 3.55 µM [quencher, side channel, full curve] | – |
| COc1ccccc1NC(=O)NNC(=O)c1cc2ccccc2cc1O | inconclusive: 31.6 µM [quencher, side channel, partial curve] | – |
| NNc1nc2c(-c3ccc(F)cc3)nnn2c2ccccc12 | inconclusive: 5.62 µM [quencher, side channel, full curve, poor fit] | – |
| CCCCc1ccc(-c2ccc(C)cc2O)nc1 | – | inactive: -15.1% |
| NS(=O)(=O)Cc1noc2ccccc12 | inactive | – |
| Clc1ccc(-c2ccc(/C=N/Nc3cc(N4CCOCC4)nc(N4CCOCC4)n3)o2)cc1 | inconclusive: 14.1 µM [quencher, side channel, partial curve] | – |
| COCCCn1c(=O)c2ccccc2n(CC(=O)NCCC2=CCCCC2)c1=O | inconclusive: 3.98 µM [quencher, side channel, single point] | – |
| O=C(Nc1ncc(Cc2ccc(SC(F)F)cc2)s1)c1ccc(OC(F)F)cc1 | inconclusive: 3.16 µM [quencher, side channel, full curve] | – |

— PubChem BioAssay AID1768 (National Center for Advancing Translational Sciences (NCATS), 2009)
